# The other results are listed elsewhere or left out. At the low end of the ranking the order means little.
# Target: GST-SBP-SLBP (stem-loop binding protein) (UniProt Q14493)
# Experiment: targeted RNA Bind-n-Seq;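 further: DESeq read counts versus GST-SBP nonspecific binding control pulldown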
# Settings: RBNS binding buffer: 25 mM Tris pH 7.5, 150 mM KCl, 3 mM MgCl2, 0.1% Tween, 0.5 mg/mL BSA, 1 mM DTT; 27 nM protein, 750 pM RNA pool; temperature not stated; high values mean tight binding
row,Sequence,binding signal (log2 fold change)
1,GGUCACGUCUCAAUCAACUCUUCUUCCAGGGAAAUCCCUGGCGUAUUCAACAGCUCGCAGUCAAG,-0.231
2,GGUCACGUCUCAAUCAACUCAAUUUCCAGGGAAAUCCCUGGUUUACUCAACAGCUCGCAGUCAAG,0.112
3,GGUCACGUCUCAAUCAACUCAGUCUCCAGGGAAACCCCUGGCAUUCUCAACAGCUCGCAGUCAAG,-0.0883
4,GGUCACGUCUCAAUCAACUCAUCGUCAGGAGUUUCCUCCUGCUUUUUCAACAGCUCGCAGUCAAG,0.141
5,GGUCACGUCUCAAUCAACUCCCUAGAGGGGGGGAAAACCCCUUUGCCCUCCAUGUCAACAGCUCGCAGUCAAG,-0.233
6,GGUCACGUCUCAAUCAACUCAAUUCCCAGGGAAAACCCUGGUUUACUCAACAGCUCGCAGUCAAG,0.194
7,GGUCACGUCUCAAUCAACUCUUUUUCCAGGGAAAACCCUGGCUAUCUCAACAGCUCGCAGUCAAG,0.0953
8,GGUCACGUCUCAAUCAACUCUACUUCAGGAGUUUACUCCUGUUUAUUCAACAGCUCGCAGUCAAG,-0.0221
9,GGUCACGUCUCAAUCAACUCAUCGCCCAGGGAAAGCCCUGGUUAAUUCAACAGCUCGCAGUCAAG,0.329
10,GGUCACGUCUCAAUCAACUCUACUCCCAGGGAAAUCCCUGGCUUACUCAACAGCUCGCAGUCAAG,0.0296
11,GGUCACGUCUCAAUCAACUCAUCGCCCAGGGAAACCCCUGGUUUUCUCAACAGCUCGCAGUCAAG,-0.0927
12,GGUCACGUCUCAAUCAACUCAAUUCCAGGAGUUUUCUCCUGCAAAUUCAACAGCUCGCAGUCAAG,0.0343
13,GGUCACGUCUCAAUCAACUCCAUAGAGGGGGGGAAAACCCCUUUACCCUCACACUCAACAGCUCGCAGUCAAG,0.698
14,GGUCACGUCUCAAUCAACUCAAUCCCAGGAGUUUCCUCCUGCUAAUUCAACAGCUCGCAGUCAAG,0.227
15,GGUCACGUCUCAAUCAACUCACAAGAGGGGGGGAAAACCCCUUUGCCCUCCAACUCAACAGCUCGCAGUCAAG,0.0823
16,GGUCACGUCUCAAUCAACUCUAUCGAGGGGGGGAAAACCCCUUUACCCUCACUAUCAACAGCUCGCAGUCAAG,-0.148
17,GGUCACGUCUCAAUCAACUCUAUCCCAGGAGUUUGCUCCUGCAUAUUCAACAGCUCGCAGUCAAG,0.00267
18,GGUCACGUCUCAAUCAACUCUUCGCCCAGGGAAAGCCCUGGUAAAUUCAACAGCUCGCAGUCAAG,-0.144
19,GGUCACGUCUCAAUCAACUCAUUUCCCAGGGAAAGCCCUGGCAAUUUCAACAGCUCGCAGUCAAG,-0.0864
20,GGUCACGUCUCAAUCAACUCUUUUUCAGGAGUUUCCUCCUGUAAUGUCAACAGCUCGCAGUCAAG,-0.0571
21,GGUCACGUCUCAAUCAACUCAAUCUCAGGAGUUUACUCCUGCUAAUUCAACAGCUCGCAGUCAAG,-0.0611
22,GGUCACGUCUCAAUCAACUCAUCGCCAGGAGUUUUCUCCUGCUUUUUCAACAGCUCGCAGUCAAG,-0.171
23,GGUCACGUCUCAAUCAACUCUAUUUCCAGGGAAACCCCUGGCUUACUCAACAGCUCGCAGUCAAG,-0.161
24,GGUCACGUCUCAAUCAACUCAUCUCCCAGGGAAAUCCCUGGUUAAUUCAACAGCUCGCAGUCAAG,-0.173
25,GGUCACGUCUCAAUCAACUCUUCGCCCAGGGAAACCCCUGGUAUUCUCAACAGCUCGCAGUCAAG,-0.108

row,Sequence,binding signal (log2 fold change)
1,GGUCACGUCUCAAUCAACUCAAAAGAGGGGGGGAAAACCCCUUUGCCCUCAAUGUCAACAGCUCGCAGUCAAG,-0.271
2,GGUCACGUCUCAAUCAACUCUUUCUCCAGGGAAAGCCCUGGUUUAUUCAACAGCUCGCAGUCAAG,-0.173
3,GGUCACGUCUCAAUCAACUCAACUUCAGGAGUUUCCUCCUGCAAUCUCAACAGCUCGCAGUCAAG,0.198
4,GGUCACGUCUCAAUCAACUCUAUCCCCAGGGAAAACCCUGGUUAACUCAACAGCUCGCAGUCAAG,0.151
5,GGUCACGUCUCAAUCAACUCUCUAGAGGGGGGGAAAACCCCUUUGCCCUCACAUUCAACAGCUCGCAGUCAAG,0.0344
6,GGUCACGUCUCAAUCAACUCUUUUUCCAGGGAAACCCCUGGCGUAUUCAACAGCUCGCAGUCAAG,0.0942
7,GGUCACGUCUCAAUCAACUCAUCGCCCAGGGAAAGCCCUGGUAUUCUCAACAGCUCGCAGUCAAG,0.0148
8,GGUCACGUCUCAAUCAACUCUUUCGAGGGGGGGAAAACCCCUUUACCCUCACCUUCAACAGCUCGCAGUCAAG,-0.275
9,GGUCACGUCUCAAUCAACUCAUAAGAGGGGGGGAAAACCCCUUUGCCCUCAACAUCAACAGCUCGCAGUCAAG,-0.0897
10,GGUCACGUCUCAAUCAACUCUUCCCCAGGAGUUUUCUCCUGCAAAUUCAACAGCUCGCAGUCAAG,-0.0606
11,GGUCACGUCUCAAUCAACUCAUUUUCAGGAGUUUACUCCUGCUAUCUCAACAGCUCGCAGUCAAG,0.147
12,GGUCACGUCUCAAUCAACUCCUUAGAGGGGGGGAAAACCCCUUUACCCUCAUCAUCAACAGCUCGCAGUCAAG,-0.311
13,GGUCACGUCUCAAUCAACUCUUCCCCCAGGGAAAUCCCUGGCAUUCUCAACAGCUCGCAGUCAAG,-0.012
14,GGUCACGUCUCAAUCAACUCUAGUCCCAGGGAAAGCCCUGGCUUAUUCAACAGCUCGCAGUCAAG,-0.0471
15,GGUCACGUCUCAAUCAACUCAUCGCCCAGGGAAAACCCUGGUAAAUUCAACAGCUCGCAGUCAAG,-0.183
16,GGUCACGUCUCAAUCAACUCAGUCCCCAGGGAAAUCCCUGGUUAAUUCAACAGCUCGCAGUCAAG,-0.126
17,GGUCACGUCUCAAUCAACUCAUUUCCAGGAGUUUUCUCCUGUAAUCUCAACAGCUCGCAGUCAAG,0.0993
18,GGUCACGUCUCAAUCAACUCUAUGUCAGGAGUUUUCUCCUGUUUUUUCAACAGCUCGCAGUCAAG,-0.188
19,GGUCACGUCUCAAUCAACUCAAUCCCCAGGGAAAACCCUGGCUUACUCAACAGCUCGCAGUCAAG,-0.08
20,GGUCACGUCUCAAUCAACUCUUCCUCAGGAGUUUGCUCCUGCAUUUUCAACAGCUCGCAGUCAAG,-0.0533
21,GGUCACGUCUCAAUCAACUCCAUAGAGGGGGGGAAAACCCCUUUACCCUCAACCUCAACAGCUCGCAGUCAAG,-0.359
22,GGUCACGUCUCAAUCAACUCUAUUCCAGGAGUUUUCUCCUGUAUACUCAACAGCUCGCAGUCAAG,-0.0748
23,GGUCACGUCUCAAUCAACUCUUUCGAGGGGGGGAAAACCCCUUUACCCUCAUCGUCAACAGCUCGCAGUCAAG,-0.57
24,GGUCACGUCUCAAUCAACUCAAUUUCAGGAGUUUUCUCCUGCAUUUUCAACAGCUCGCAGUCAAG,0.0211
25,GGUCACGUCUCAAUCAACUCUUUUUCCAGGGAAACCCCUGGUAUUCUCAACAGCUCGCAGUCAAG,0.000413

row,Sequence,binding signal (log2 fold change)
1,GGUCACGUCUCAAUCAACUCCUUCGAGGGGGGGAAAACCCCUUUACCCUCCAUAUCAACAGCUCGCAGUCAAG,-0.245
2,GGUCACGUCUCAAUCAACUCUACUUCCAGGGAAACCCCUGGUAAACUCAACAGCUCGCAGUCAAG,-0.0539
3,GGUCACGUCUCAAUCAACUCAUCCCCAGGAGUUUCCUCCUGUUAAUUCAACAGCUCGCAGUCAAG,0.0457
4,GGUCACGUCUCAAUCAACUCCAUAGAGGGGGGGAAAACCCCUUUGCCCUCAUCAUCAACAGCUCGCAGUCAAG,-0.0434
5,GGUCACGUCUCAAUCAACUCUACUUCAGGAGUUUUCUCCUGUUUUUUCAACAGCUCGCAGUCAAG,0.0312
6,GGUCACGUCUCAAUCAACUCUACGGAGGGGGGGAAAACCCCUUUACCCUCAUCCUCAACAGCUCGCAGUCAAG,-0.755
7,GGUCACGUCUCAAUCAACUCUCCGGAGGGGGGGAAAACCCCUUUACCCUCAUCAUCAACAGCUCGCAGUCAAG,0.00651
8,GGUCACGUCUCAAUCAACUCAGUUCCAGGAGUUUUCUCCUGUUUUCUCAACAGCUCGCAGUCAAG,-0.111
9,GGUCACGUCUCAAUCAACUCAUCGCCAGGAGUUUACUCCUGUAAUCUCAACAGCUCGCAGUCAAG,-0.0636
10,GGUCACGUCUCAAUCAACUCUCUAGAGGGGGGGAAAACCCCUUUACCCUCAAUCUCAACAGCUCGCAGUCAAG,-0.049
11,GGUCACGUCUCAAUCAACUCAAUCCCCAGGGAAAUCCCUGGUUAUCUCAACAGCUCGCAGUCAAG,0.153
12,GGUCACGUCUCAAUCAACUCUACUUCCAGGGAAAGCCCUGGCAUACUCAACAGCUCGCAGUCAAG,-0.195
13,GGUCACGUCUCAAUCAACUCUCUAGAGGGGGGGAAAACCCCUUUGCCCUCGUCAUCAACAGCUCGCAGUCAAG,0.374
14,GGUCACGUCUCAAUCAACUCCAACGAGGGGGGGAAAACCCCUUUACCCUCCACAUCAACAGCUCGCAGUCAAG,-0.142
15,GGUCACGUCUCAAUCAACUCCCAAAGGUUUUUUUUAGAACCACCCAUCAACAGCUCGCAGUCAAG,0.338
16,GGUCACGUCUCAAUCAACUCAAUUUCCAGGGAAAUCCCUGGCUUAUUCAACAGCUCGCAGUCAAG,-0.235
17,GGUCACGUCUCAAUCAACUCAUUCUCCAGGGAAAUCCCUGGUUAUUUCAACAGCUCGCAGUCAAG,0.0285
18,GGUCACGUCUCAAUCAACUCAUCCUCCAGGGAAAUCCCUGGCUUACUCAACAGCUCGCAGUCAAG,-0.0608
19,GGUCACGUCUCAAUCAACUCUUUUUCCAGGGAAAACCCUGGCUAUGUCAACAGCUCGCAGUCAAG,-0.0596
20,GGUCACGUCUCAAUCAACUCUAUCUCAGGAGUUUACUCCUGCAAUUUCAACAGCUCGCAGUCAAG,-0.0904
21,GGUCACGUCUCAAUCAACUCGUUUUCAGGAGUUUACUCCUGCAUAUUCAACAGCUCGCAGUCAAG,0.217
22,GGUCACGUCUCAAUCAACUCUUCGUCCAGGGAAAACCCUGGCAAUUUCAACAGCUCGCAGUCAAG,-0.25
23,GGUCACGUCUCAAUCAACUCUUUCCCAGGAGUUUCCUCCUGCUAUUUCAACAGCUCGCAGUCAAG,-0.0117
24,GGUCACGUCUCAAUCAACUCAGUUUCCAGGGAAAUCCCUGGUUUUUUCAACAGCUCGCAGUCAAG,-0.263

# — publication PMC5892938
